About 400 (5.1%) of roughly 7,900 compounds showed an effect of 50% or more. The list shows a part of the results.

Chain of Parkinson's disease protein 7 (PARK7/DJ1) (Q99497 whole entry, looked up, the tested form may be a part): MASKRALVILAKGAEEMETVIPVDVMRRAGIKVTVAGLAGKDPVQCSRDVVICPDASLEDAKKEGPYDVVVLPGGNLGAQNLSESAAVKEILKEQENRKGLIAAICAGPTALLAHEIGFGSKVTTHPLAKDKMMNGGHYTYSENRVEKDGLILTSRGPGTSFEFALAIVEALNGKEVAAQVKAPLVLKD

This experiment has as its target Parkinson's disease protein 7 (PARK7/DJ1) (human, UniProt Q99497). Put plainly: primary screen, percent inhibition; read as competition with a fluorescent probe by fluorescence polarization; higher = more effect of the substance. The note with it: 100 µM. As to the method:
The screen was conducted using the conditions as described above in 1536-well plates (Corning 3724) with a reaction volume of 8 μL per well. The compound library containing 7887 covalent fragments was purchased at Enamine Ltd. and received as 100 mM DMSO stocks in 384 well LDV Echo plates (Labcyte LP-0200). Stock solutions of 0.26 μM PARK7 and 80 nM JYQ-107 were prepared. Using a Labcyte Echo550 acoustic dispenser, 8 nL of the DMSO stock solution of the library compounds was transferred from the source plates into the empty 1536-well screening plates to obtain a 100 μM final compound concentration. Next, PARK7 (6 μL, final concentration 0.2 μM) was dispensed using a Biotek MultiflowFX liquid dispenser and incubated for 2 h, followed by dispensing the probe JYQ-107 (2 μL, final concentration 20 nM). After 2 h incubation, the FP signal was recorded on a BMG Labtech PHERAstar plate reader (λex/em 480/520 nm). The relative loss of FP signal compared with reference controls was used to calculate the remaining enzyme activity.
For `CC1(C)OB(C2CC23CCOCC3)OC1(C)C` (centres unmarked), the Inhibition % came out at 2.49%.
For `O=C1OCCC1Sc1ncnc2ccsc12` (centres unmarked), the Inhibition % is given as 3.13%.
Next, `O=C(CCl)NCC1(c2ccccc2)CCC1`: 15.1%; `CCCN(c1ccc(C#N)nc1)C1CC1`: 4.72%; `CCNC(=O)Oc1cccc(O)c1`: 32.3%.
As to `O=C(Nc1ccc(Cl)cc1)N1CCC(C2OCCO2)CC1`, the Inhibition % worked out at 14%.
As for `Cc1ccc(Oc2ccc(Cl)cc2NC(=O)CCl)cc1`, the Inhibition % was determined as 2.17%.
With `O=C(CCl)Nc1c(F)cccc1F`, the Inhibition % is listed as 26.1%.
Turning to `N#Cc1nc(N2CCC(NC(N)=O)CC2)ccc1Cl`, the Inhibition % is given as 4.8%.
Take `Cn1cc(C(=O)CCl)cc1C(N)=O`: the Inhibition % turned out to be 0.329%.
Consider `O=C(C=Cc1nc2ccccc2o1)N1CCC1`, for which the Inhibition % was 4.95%.
The figure for `CN(C(=O)c1ccc2c(=O)n(C)c(S)nc2c1)C1CC1` is 5.16%.
Next, `Cc1cc(B(O)O)ccc1OCc1ccc(Cl)cc1`: 0.486%; `CCN(CCC#N)S(=O)(=O)C=Cc1ccccc1`: 1.49%; `Cc1ccnc(S)n1.Cl`: 5.09%.
The figure for `N#Cc1cccc(SCCN2CCOCC2)n1` is 2.57%.
Regarding `C=CC(=O)NC1CCOc2c(OC)cccc21` (centres unmarked), the Inhibition % is on record as 11%.
Turning to `C=CC(=O)N1CCC(Oc2ccc(C3CC3)cn2)C1` (centres unmarked), the Inhibition % is 11.9%.
Take `CCc1cc(S)nc(S)n1`: the Inhibition % is -0.469%.
For the compound `C=CC(=O)Nc1cc(C2CCCO2)nn1C` (centres unmarked), the Inhibition % was 13.1%.
As for `N#Cc1nccnc1NCCc1ccc[nH]1`, the Inhibition % was 5.64%.
Next, `C=CC(=O)N1CCCC1C` (centres unmarked): 7.71%; `O=c1[nH]c2ccccc2n1CCCCl`: 4.46%; `CC(NC(=O)c1cccnc1S)C(O)c1ccc(F)cc1` (centres unmarked): 2.15%.
Next, `COCCNC(=O)C(C#N)=Cc1ccc(O)cc1`: -0.455%; `N#CC(=Cc1ccccc1OCC(F)(F)F)C(N)=O`: 22.7%.
Take `N#Cc1c(N)nc2n1CCC2`: the Inhibition % was 33.2%.
Turning to `CC1OC(C)(C)N(C(=O)OC(C)(C)C)C1CB1OC(C)(C)C(C)(C)O1` (centres unmarked), the Inhibition % worked out at 9.69%.
Turning to `CN(C)c1cccnc1C#N`, the Inhibition % amounted to 2.64%.
The figure for `CC(OCC1CO1)c1ccc(Cl)cc1` (centres unmarked) is 5.47%.
On to `C=CC(=O)NCC1(c2c(F)cccc2F)CCC1`, for which the Inhibition % is reported as 3.26%.
For `O=S(=O)(F)c1cccc(S(=O)(=O)Nc2ncccn2)c1`, the Inhibition % is given as 16.8%.
Turning to `CN(Cc1ccc(N(C)C)cc1)C(=O)CCl.Cl`, the Inhibition % is 71.3%.
Next, `Cc1cccc(C)c1NC(=O)CNC(=O)CCl`: 3.45%.
For `C=CC(=O)NCc1c2c(nn1C)CCCC2`, the Inhibition % is given as 4.79%.
Next, `Cc1cc(Cn2c(-c3ccccc3C)noc2=O)no1`: 9.88%.
As for `N#CC(=Cc1ccsc1)C(N)=O`, the Inhibition % is on record as 10.6%.
The figure for `O=C(CCl)NNC(=O)c1cccs1` is 7.74%; for `Cn1c(C(C#N)=Cc2cccnc2)nc2ccccc21` it is 48.5%; for `OB(O)c1ccc2c(c1)CCC2` it is 6.42%.
The figure for `C=CC(=O)NC1(c2ccccc2)CC1` is 13.8%.
With `C=CC(=O)N[C@H]1COC[C@H]1Oc1cnn(CC)c1`, the Inhibition % is 6.37%.
In the case of `O=c1onc(-c2ncccn2)n1Cc1ccc(Cl)s1`, the Inhibition % is reported as 2.32%.
Regarding `Cc1conc1NS(=O)(=O)c1cccc(S(=O)(=O)F)c1`, the Inhibition % was 99%.
Regarding `COc1ccc(Cl)cc1NC(=O)CCCl`, the Inhibition % is listed as 9.72%.
For the compound `CCN(CC)C(=O)CSc1cccc(C#N)n1`, the Inhibition % is 3.91%.
Next, `Cc1ccc(N)cc1B1OC(C)(C)C(C)(C)O1`: 14.1%; `CNc1cc(C#N)ncn1.Cl`: 5.73%; `O=C(CCl)Nc1c(Cl)cccc1Cl`: 1.12%.
For `O=C(CCl)Nc1ccccc1C(=O)NC1CC1`, the Inhibition % is given as 7.53%.
Take `C=CC(=O)Nc1cccnc1`: the Inhibition % is recorded as 7.7%.
In the case of `Cl.O=C(CCl)NCC1(N2CCOCC2)CCCCC1`, the Inhibition % was 3.15%.
Next, `CN(C)C(=O)Oc1ccc(NC(=O)N2CCOCC2)cc1`: 4.77%; `CN(C)S(=O)(=O)c1cccc(NC(=O)CCl)c1`: 15.5%.
The figure for `O=C1C(Cc2ccccc2)N=C(S)N1CC1CCCO1` (centres unmarked) is 2.33%.
In the case of `CC1(C)NC(=O)C1(C)C`, the Inhibition % is recorded as 2.57%.
Take `COc1cccc(C2=NC(=Cc3cccnc3)C(=O)O2)c1`: the Inhibition % was determined as 3.51%.
Consider `C=CC(=O)N1CCc2c(ncn2C)C1`, for which the Inhibition % is reported as 24.3%.
For `C=CC(=O)N1C(C)CN(CC)CC1C` (centres unmarked), the Inhibition % was found to be 18.5%.
As to `CCNC(=O)C(C#N)=CC1=Cc2ccccc2OC1`, the Inhibition % stood at 1.81%.
Regarding `C=CCN(C)C(=O)CCn1c(S)nc2ccccc2c1=O`, the Inhibition % was 6.8%.
Next, `CC1COCCN1C(=O)C=Cc1nc2ccccc2o1` (centres unmarked): 11.9%; `CCc1nccn1S(=O)(=O)c1ccc(F)c(C)c1`: 26.7%.
For the compound `COc1cc(S(=O)(=O)n2cnc(C)c2)c(C)cc1C`, the Inhibition % was 9.13%.
`O=C(CN1CCSC1=O)Nc1ccc(Cl)cc1F`: the Inhibition % turned out to be 6.77%.
Regarding `O=C(c1cccc(S(=O)(=O)F)c1)N1CCCn2ncc(C3CC3)c21`, the Inhibition % is given as 6.74%.
Next, `O=C1CCC(=O)N1c1cccnc1`: 4.72%.
Next, `N#CC(=Cc1ccc2c(c1)OCCO2)C(N)=O`: 4.34%; `COc1cccc2c1CCN(CC1OCCO1)CC2`: 13.1%.
In the case of `CC1(C)C(=O)NC1C1CCN(C(=O)N2CCSCC2)CC1` (centres unmarked), the Inhibition % worked out at 2.2%.
Next, `N#CC(c1cccs1)N1CCN(C(=O)CCl)CC1` (centres unmarked): 17.3%.
Next, `Cc1cccc2c(N)cc(S)nc12`: 3.88%; `O=C(CCl)NNC(=O)c1ccc(F)cc1`: 23.9%.
For the compound `Cc1ccccc1CN(C)C1CCOC1=O` (centres unmarked), the Inhibition % was found to be 8.98%.
The figure for `CC1(C)OB(c2cccc(Cn3cccn3)c2)OC1(C)C` is 4.09%.
On to `COCc1n[nH]c(=O)o1`, for which the Inhibition % turned out to be 2.07%.
For `C=CC(=O)N1CCCCc2sccc21`, the Inhibition % is listed as 8.81%.
The figure for `O=C(C=Cc1ccncc1)N1CCOc2ccccc21` is 5.34%; for `O=S(=O)(F)c1ccc(S(=O)(=O)Nc2ccnnc2)cc1` it is 8.23%; for `COc1ccc(NC(=O)CCCl)cc1` it is 4.56%.
Consider `COc1ccc(-c2cc(CN3C(=O)CCC3=O)on2)cc1`, for which the Inhibition % is given as 2.16%.
Next, `C=CC(=O)N1CCCC(c2nccs2)C1` (centres unmarked): 14.5%; `Cc1cc2[nH]ncc2cc1S(=O)(=O)F`: 97.4%.
The figure for `CC1(C)OB(c2cc(F)cc(OC(F)F)c2)OC1(C)C` is 10.3%; for `C=CC(=O)N1C[C@H](CC)CC[C@H]1C` (racemic) it is 10.5%; for `CN(Cc1ccc(Cl)cc1)C(=O)CCl` it is 48.5%.
`CN(CCO)c1ccnc(C#N)c1`: the Inhibition % was found to be 7.91%.
The figure for `c1ccc(COCC2CO2)cc1` (centres unmarked) is 7.44%; for `C=CC(=O)N1CCC(S(=O)(=O)C(C)C)CC1` it is 5.57%; for `C=CC(=O)NCC(c1ccc(Cl)cc1)n1cccn1` (centres unmarked) it is -2.82%.
The figure for `OB(O)c1ccc(OC2CCCC2)cc1` is -3.51%; for `Cc1nc(NC(=O)CCl)sc1C` it is 10.6%; for `CCOc1ccc(Cl)cc1S(=O)(=O)n1ccnc1C` it is -1.43%.
As for `CCOc1ccc(S(=O)(=O)n2ccc(C)n2)cc1C(C)C`, the Inhibition % was -1.14%.
The figure for `N#Cc1ncn(CCOc2ccc(Cl)cc2)n1` is 4.4%.
Turning to `CCc1ccc(OC)c(S(=O)(=O)n2cc(C)nc2CC)c1`, the Inhibition % stood at 11.8%.
The figure for `NC(=O)C1CCCC(n2c(S)nc3ccccc3c2=O)C1` (centres unmarked) is 7.16%; for `O=C(CCCl)Nc1ccc(S(=O)(=O)N2CCCC2)cc1` it is 3.33%.
Take `C=CC(=O)NC1CCOC2(CCCCC2)C1` (centres unmarked): the Inhibition % came out at 5.69%.
Next, `CC(C)C1NC(=O)C12CCC2` (centres unmarked): 3.04%.
Consider `C=CC(=O)NC1COCc2ccccc21` (centres unmarked), for which the Inhibition % is reported as 9.84%.
Next, `CC(=O)Nc1ccc(NC(=O)CCl)cc1`: 4.19%; `CCN(c1ccc(C(=O)CCl)cc1)S(C)(=O)=O`: 95.1%.
Regarding `C=CC(=O)N1CCS(=O)(=O)CCC1C` (centres unmarked), the Inhibition % amounted to 7.8%.
Next, `CCC(O)(CC)CNc1ccc(Cl)c(C#N)n1`: 6.75%.
For the compound `N#Cc1nc(N2CCCC(CCO)C2)ccc1Cl` (centres unmarked), the Inhibition % stood at 9.52%.
Next, `C=CC(=O)Nc1ccc(N2CCCC2=O)c(F)c1`: 8.38%; `C=CC(=O)NC1CCN(c2c(F)cccc2F)C1=O` (centres unmarked): 15.3%; `COC(=O)C1Cc2ccccc2CN1C(=O)CCl` (centres unmarked): 22.7%.
The figure for `C=CC(=O)NC1CCCC1` is 1.76%; for `CN(Cc1ccc(F)cc1)C(=O)CCl` it is 39.9%.
Next, `C=CC(=O)N1C[C@H](F)C[C@H]1C(N)=O`: 11.6%; `O=S(=O)(Oc1cccnc1F)c1c[nH]c2ncccc12`: 15.8%; `CCOc1cc(S(=O)(=O)n2ccnc2C)ccc1F`: 10.6%.
As for `C=CC(=O)NCCc1nnc(C)s1`, the Inhibition % came out at 8.54%.
As for `Cl.N#Cc1csc(CN)n1`, the Inhibition % amounted to 7.59%.
Regarding `C=CC(=O)NCCN1CC2CCCCN2C1=O` (centres unmarked), the Inhibition % worked out at 17.5%.
Take `CN(C(=O)CCl)c1nc2ccccc2s1`: the Inhibition % was 3.42%.
The figure for `C=CC(=O)N1CCCC1c1noc(CC)n1` (centres unmarked) is 9.67%.
Consider `COc1ccc(C(=O)CCl)c2c1C(=O)CO2`, for which the Inhibition % is given as 64.2%.
Next, `CC(NC(=O)Cn1cnc(C#N)n1)c1ccc(F)cc1` (centres unmarked): 4.98%.
Consider `Cc1[nH]c(S)nc(=O)c1C1CC1`, for which the Inhibition % stood at 6.61%.
As to `C=CC(=O)Nc1cccc2c1CCN2S(C)(=O)=O`, the Inhibition % worked out at 4.97%.
Consider `CC(C)(C)OC(=O)N1CC(CB2OC(C)(C)C(C)(C)O2)C1`, for which the Inhibition % is -1.81%.
The figure for `O=C(NCC1(c2ccncc2)CC1)c1cccnc1S` is 5.98%.
